Experimental data as given in PubChem BioAssay AID1745853 (National Center for Advancing Translational Sciences (NCATS), 2022).
The list shows a part of the results. Further columns of the screen follow, without active or inactive calls.

Legend:
Test in all cases: Primary Screen for Target Class Profiling of Small Molecule Inhibitors of Methyltransferases
[1] = target: Glycine N-methyltransferase (Homo sapiens) (UniProt Q14749); conditions: purified enzyme, MTase-Glo SAH luminescence; measured here: GNMT inhibition; at 40 µM; stronger effect = lower value
How it was run: (§1)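 Each enzyme was assayed with SAM and its substrate. SAH formation detected by MTase-Glo luminescence; single-point 40 uM screen[…].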

[2] = target: Guanidinoacetate N-methyltransferase (Homo sapiens) (UniProt Q14353); conditions: purified enzyme, MTase-Glo SAH luminescence; measured here: GAMT inhibition; at 40 µM; stronger effect = lower value
How it was run: as §1

[3] = target: Histamine N-methyltransferase (Homo sapiens) (UniProt P50135); conditions: purified enzyme, MTase-Glo SAH luminescence; measured here: HNMT inhibition; at 40 µM; stronger effect = lower value
How it was run: as §1

[4] = target: Nicotinamide N-methyltransferase (Homo sapiens) (UniProt P40261); conditions: purified enzyme, MTase-Glo SAH luminescence; measured here: NNMT inhibition; at 40 µM; stronger effect = lower value
How it was run: as §1

[5] = target: Phenylethanolamine N-methyltransferase (Homo sapiens) (UniProt P11086); conditions: purified enzyme, MTase-Glo SAH luminescence; measured here: PNMT inhibition; at 40 µM; stronger effect = lower value
How it was run: as §1
On the % scale 0 is the no-effect control and ±100 the full control effect.

Row | SMILES | activity change, negative = inhibition [1] [%] | activity change, negative = inhibition [2] [%] | activity change, negative = inhibition [3] [%] | activity change, negative = inhibition [4] [%] | activity change, negative = inhibition [5] [%]
1 | CCC(C)NC(=O)c1ccc2c(=O)n(CCC(C)C)c3nn(CC(=O)Nc4ccc(C)cc4)c(=O)n3c2c1 (stereo not drawn) | 6.24 | 0 | 6.08 | 4.5 | 3.35
2 | COC(=O)CNC(=O)c1cc(-c2cnccc2Cl)c2cccn2n1 | -15.8 | -1.73 | -5.33 | -12 | -2.65
3 | O=C(c1ccc(Cl)cc1)N1CCC(N2CCOC2=O)CC1 | -2.39 | -8.92 | -2.81 | -12.8 | -9.27
4 | COC(=O)c1cc2n(n1)CC(C)(C(=O)NC1CCCCCC1)N(c1cccc(SC)c1)C2=O (stereo not drawn) | -3.25 | 2.67 | -7.68 | -2.47 | -2.56
5 | O=[S+]([O-])(Nc1ccccc1)c1ccc2c(c1)OCCN(Cc1cncnc1)C2 | -15.7 | -7.05 | -4.36 | -12 | -36.6
6 | CCCc1nnc(NC(=O)C2CC(=O)N(c3n[nH]c4cc(Br)ccc34)C2)s1 (stereo not drawn) | -5.93 | -8.57 | -2.06 | -21.2 | -14.5
7 | CC(C)CCNC(=O)C1(C)Cn2c(cc3ccccc32)C(=O)N1Cc1ccc(Cl)cc1 (stereo not drawn) | 7.96 | 0 | 10.3 | 7.39 | 1.64
8 | CCN(CC)C(=O)C[C@@H]1CCNC[C@@H]1Cc1cc(-c2ccccn2)on1 | -6.17 | -4.9 | -7.24 | -5.44 | -2.85
9 | CCN(CCn1cccn1)Cc1ccccc1OCC(O)CN1CCCCC1 (stereo not drawn) | 0.028 | -5.67 | -7.85 | -2.99 | 0.719
10 | COC1CCOC2(CCN(C(=O)Cc3ccccc3)CC2)C1 (stereo not drawn) | 1.23 | 1.3 | 2.95 | -1.04 | 2.2
11 | COc1cccc(N2C(=O)c3cc4ccccc4n3CC2(C)C(=O)NC2CCCC2)c1 (stereo not drawn) | -1.48 | 0.294 | 1.95 | 0.752 | 1.39
12 | Cc1[nH]c(/C=C2\C(=O)Nc3ccc(F)cc32)c(C)c1C(=O)NC[C@H](O)CN1CCOCC1 | -13.9 | 17.9 | -11.6 | 4.28 | 0.914
13 | CCC(C)NC(=O)c1ccc2c(=O)n(C(C)C)c3nn(Cc4cccc(Cl)c4)c(=O)n3c2c1 (stereo not drawn) | -4.63 | 6.71 | -4.36 | -3.59 | -0.16
14 | COc1cccc(CNc2nc3c(S(=O)(=O)c4ccc(F)cc4)nnn3c3ccccc23)c1 | -7.82 | 2.54 | -0.007 | -5.27 | -7.06
15 | CCN(CC)Cc1ccc(C(=O)N(CCc2ccccc2OC)[C@@H]2CCNC2)cc1 | -6.26 | 4.39 | -22.1 | -12.3 | 0.451
16 | Cc1ccc(Cl)cc1N1CCN(C(=O)CCc2nnc3n(CC(C)C)c(=O)c4ccccc4n23)CC1 | -16.3 | 4.5 | 2.7 | -19.6 | -3.03
17 | CC(C)COC(=O)c1ccc2c(c1)C1C=CCC1C(c1ccc(F)cc1)N2 (stereo not drawn) | -9.31 | -4.29 | -6.49 | -12.8 | -10.6
18 | Cc1ncc(CCCN(C)C)cc1Nc1ncc2c(n1)-c1ccc(C(F)(F)F)cc1NC(=S)C2 | -27.1 | -3.14 | -50.7 | -26.1 | -10
19 | O=C(c1ccccc1OC1CN(Cc2cccc(C(F)(F)F)c2)C1)N1CCOCC1 | -2.81 | 0.336 | 2.18 | -3.66 | 17.4

Row | SMILES | activity change, negative = inhibition [1] [%] | activity change, negative = inhibition [2] [%] | activity change, negative = inhibition [3] [%] | activity change, negative = inhibition [4] [%] | activity change, negative = inhibition [5] [%]
20 | CC1CCCCCCCc2cc(O)cc(O)c2C(=O)O1 (stereo not drawn) | -44.1 | -51.5 | -60.8 | -65.3 | -62
21 | CC1CCCC(NC(=O)C2(C)Cn3c(nc4ccccc43)C(=O)N2CCCc2ccccc2)C1C (stereo not drawn) | 4.19 | 0 | 5.63 | -2.74 | -1.1
22 | N#Cc1cnc2c(Cl)cc(NCc3cn(CCN4CCCCCC4)nn3)cc2c1Nc1ccc(F)c(Cl)c1 | -15.4 | -24.3 | -52.5 | -69.8 | -73.7
23 | Oc1ccc(/C=C/c2cc(O)cc(O)c2)cc1 | -21.3 | -7.84 | -10.3 | -19.9 | -9.19
24 | O=C([C@@H]1C[C@H](F)CN1C(=O)c1cccs1)N1CCOCC1 | -6.16 | -9.25 | -5.54 | -12.2 | -9.86
25 | CCCn1c(=O)c2ccc(Cl)cc2n2c(=O)n(CC(=O)c3c(C)[nH]c4ccccc34)nc12 | 7.04 | 0 | 10.9 | 12.6 | 9.02
26 | CCC(C)NC(=O)c1ccc2c(=O)n(C)c3nnc(SCC(=O)Nc4ccccc4F)n3c2c1 (stereo not drawn) | 3.36 | -1.62 | 2.61 | 10.6 | 4.62
27 | c1cc2c(cc1OC1CCCCC1)c1c3n2CCNC3CCC1 (stereo not drawn) | 6.97 | 1.83 | 7.9 | 8.04 | 5
28 | COc1cc2c(cc1OC)C1Cc3ccc(OC)c(OC)c3CN1CC2 (stereo not drawn) |  | -3.63 |  | -13.3 | -2.26
29 | COc1ccc(OCC2CN(c3ccc(OC)cc3)C(=O)c3ccc(C)nc3O2)cc1 (stereo not drawn) | -7.54 | -5.88 | -1.6 | -7.77 | -3
30 | COc1ccc(CN2C(=O)c3cc4c(OC)ccc(OC)c4n3CC2(C)C(=O)NC2CCCC2)cc1 (stereo not drawn) | 1.85 | 0.969 | 6.96 | 1.04 | 0.024
31 | CNCC(=O)N1CCC(Cc2cccc(C(N)=O)c2)C1 (stereo not drawn) | -0.346 | -0.155 | 0.042 | -4.39 | -0.492
32 | CCC(C)NC(=O)c1ccc2c(=O)n(C(C)C)c3nn(CC(=O)c4ccc(OC)cc4)c(=O)n3c2c1 (stereo not drawn) | 3.11 | 0 | 6.51 | 2.98 | 4.25
33 | Cc1ccc(N2C(=O)c3cc(-c4ccccc4)nn3CC2(C)C(=O)NCc2ccccc2)cc1Cl (stereo not drawn) | 6.04 | 1.6 | 5.11 | 7.87 | 1.02
34 | COc1ccc(CN2C(=O)c3cc4oc(C)cc4n3CC2(C)C(=O)NC2CCCCCCC2)cc1 (stereo not drawn) | -7.98 | -10.1 | 0.576 | -13.2 | -7.38
35 | CCOC(=O)c1cnc2ccc(C)cc2c1Nc1cccc(C)c1 | 3.12 | -0.621 | -2.85 | -4.35 | -5.5
36 | C=C1C(=O)O[C@@H]2C[C@@H](C)[C@]34C[C@]5(C(=O)O[C@H]6CC(C)=C([C@H](C)CCCO)[C@H](OC(=O)C(C)CC)[C@H]65)[C@@H](C(C)=C3C[C@@H]12)[C@H]4OC(C)=O (stereo partly drawn) | -4.93 | -4.24 | -3.88 | -17.2 | -14
37 | COC(=O)c1ncn2c1C(=O)N(c1ccc(OC)c(OC)c1)C(C)(C(=O)NCc1ccccc1OC)C2 (stereo not drawn) | 3.2 | 0.565 | 9.82 | 8.18 | 7.7
38 | COc1ccc(NC(=O)N2CCc3c2ccc2ccccc32)cc1N1CCN(C)CC1 | 0.402 | 7.44 | -0.387 | -11.5 | -25.9
